{
  "source": "the supplement of paper PMC4604168 (melanoma cell lines)",
  "note": "This is one part of the list. Repeats are few or missing, and single values can be far off.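 Also: cells treated in 1,536-well plates, then fixed and DAPI-stained, with nuclei counted from automated high-throughput microscope images.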",
  "data": [
    {"test_system": "A375", "test": "cell count relative to DMSO control; melanoma cells; higher = more viable cells", "conditions": "library dose: standard library concentration; 72 h", "units": {"cell count": "%"}, "values": [
      {"smiles": "Cc1ccc(NC(=O)c2cccc(N(C)C)c2)cc1NC(=O)c1ccc(O)cc1", "note": "+ c1cc(-c2cnn3cc(-c4ccc(OCCN5CCCCC5)cc4)cnc23)ccn1 [Dorsomorphin] (first compound 10 µM, partner dose 2 µM)", "cell count": 71.6},
      {"smiles": "CC(C)(C)c1cnc(CSc2cnc(NC(=O)C3CCNCC3)s2)o1", "note": "+ Cn1cncc1[C@@](N)(c1ccc(Cl)cc1)c1ccc2c(c1)c(-c1cccc(Cl)c1)cc(=O)n2C [tipifarnib] (first compound 0.05 µM, partner dose 0.05 µM)", "cell count": 84.5},
      {"smiles": "NC(=O)c1ccc(N(C(N)=O)c2c(F)cccc2F)nc1-c1ccc(F)cc1F", "note": "+ Nc1ncn([C@H]2C[C@H](O)[C@@H](CO)O2)c(=O)n1 [decitabine] (first compound 2 µM, partner dose 0.5 µM)", "cell count": 97},
      {"smiles": "Cc1ccc(NC(=O)c2cccc(N(C)C)c2)cc1NC(=O)c1ccc(O)cc1", "note": "+ CC(C)CCN1c2nc(Nc3cc(F)c(O)c(F)c3)ncc2N(C)C(=O)C1C [BID1870] (first compound 10 µM, partner dose 1 µM)", "cell count": 95.5},
      {"smiles": "CCCCCCCCc1ccc(CCC(N)(CO)CO)cc1", "note": "[fingolimod] + C[C@]1(c2nc3c(C(N)=O)cccc3[nH]2)CCCN1 [Veliparib] (first compound 10 µM, partner dose 7 µM)", "cell count": 76.5},
      {"smiles": "CN(NC(=O)CC(=O)NN(C)C(=S)c1ccccc1)C(=S)c1ccccc1", "note": "+ O=S(=O)(c1ccccc1)N(CC(F)(F)F)c1ccc(C(O)(C(F)(F)F)C(F)(F)F)cc1 [T0901317] (first compound 0.03 µM, partner dose 7 µM)", "cell count": 95},
      {"smiles": "CN(NC(=O)CC(=O)NN(C)C(=S)c1ccccc1)C(=S)c1ccccc1", "note": "+ Oc1nc(-c2ccc(C(F)(F)F)cc2)nc2c1CSCC2 [XAV939] (first compound 0.03 µM, partner dose 10 µM)", "cell count": 102},
      {"smiles": "CC(C)(C)c1cnc(CSc2cnc(NC(=O)C3CCNCC3)s2)o1", "note": "+ CN(NC(=O)CC(=O)NN(C)C(=S)c1ccccc1)C(=S)c1ccccc1 [STA4783] (first compound 0.05 µM, partner dose 0.03 µM)", "cell count": 86.7},
      {"smiles": "CC(C)(C)c1cnc(CSc2cnc(NC(=O)C3CCNCC3)s2)o1", "note": "+ NC(=O)Nc1cc(-c2cccc(F)c2)sc1C(=O)N[C@H]1CCCNC1 [AZD7762] (first compound 0.05 µM, partner dose 0.1 µM)", "cell count": 56.3},
      {"smiles": "NC(=O)c1ccc(N(C(N)=O)c2c(F)cccc2F)nc1-c1ccc(F)cc1F", "note": "+ CN(c1ncccc1CNc1nc(Nc2ccc3c(c2)CC(=O)N3)ncc1C(F)(F)F)S(C)(=O)=O [PF562271] (first compound 2 µM, partner dose 0.4 µM)", "cell count": 95.5},
      {"smiles": "CCCCCCCCc1ccc(CCC(N)(CO)CO)cc1", "note": "[fingolimod] + Cn1c(Nc2ccc(C(F)(F)F)cc2)nc2cc(Oc3ccnc(-c4ncc(C(F)(F)F)[nH]4)c3)ccc21 [CHIR265] (first compound 10 µM, partner dose 0.4 µM)", "cell count": 35.8},
      {"smiles": "CCc1ccc(CCOc2ccc(CC3SC(=O)NC3=O)cc2)nc1", "note": "(configuration not stated) [pioglitazone] + Cn1cc(/C=C2\\C(=O)Nc3cccnc32)c2ccccc21 [GW441756] (first compound 10 µM, partner dose 2 µM)", "cell count": 173}
    ]}
  ]
}
